Source: paper PMC7819943, “Rice protein-binding microarrays: a tool to detect cis-acting elements near promoter regions in rice”
The other results are listed elsewhere or left out.

biological target: T1, OsWOX13 (Oryza sativa, UniProt Q5QMM3 1-267); experiment: protein-binding microarray (RPBM); PBS, 2% BSA, 51.3 ng/ul salmon testes DNA, 50 uM zinc acetate, 200 nM TF, 25 C, 1 h; high values mean tight binding; conditions: protein: recombinant; tags: N-terminal polyhistidine and DsRed monomer fusion (pET32a); label: CyDye5-dUTP incorporated in the synthesized complementary strand; 3' TTTTT single-stranded linker to array surface; dsDNA, one strand shown
T1 sequence: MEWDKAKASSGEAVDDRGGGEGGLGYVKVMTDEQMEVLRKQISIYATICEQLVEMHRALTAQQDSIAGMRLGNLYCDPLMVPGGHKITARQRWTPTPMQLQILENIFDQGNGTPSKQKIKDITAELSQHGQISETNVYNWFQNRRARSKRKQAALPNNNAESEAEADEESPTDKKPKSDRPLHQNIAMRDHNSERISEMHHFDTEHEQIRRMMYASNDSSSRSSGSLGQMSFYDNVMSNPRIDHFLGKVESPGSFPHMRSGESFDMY
In short: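 Transcription factors were made in E. coli BL21-CodonPlus as N-terminal fusions to a polyhistidine tag and DsRed, then purified on Ni–NTA. After primer extension with Cy5-dUTP and blocking with 2% BSA, a custom Agilent array was exposed for 1 h at 25 °C to 200 nM protein in PBS, 2% BSA, salmon testes DNA and 50 µM zinc acetate. Washed arrays were scanned on an Axon 4000B, and the binding signal is per-feature fluorescence intensity in arbitrary units.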

Sequence	binding signal
CGAGTTGTTTAGTGCAATTAACACCGCGATTGCAATCTGCCGGAGTCACCTAGTGCAG	5230 fluorescence intensity (a.u.)
CATCAATGATATTAGAATTATGATATATGCGATATCACATCGGAGTCACCTAGTGCAG	4640 fluorescence intensity (a.u.)
GGTTAGTTTTGATTAGGTGTCATTTAGTTTTAAATCGCCTCGGAGTCACCTAGTGCAG	8350 fluorescence intensity (a.u.)
GCTGATTAGACTATGTCAATGATCCATGTCATCGAAATCCCGGAGTCACCTAGTGCAG	23100 fluorescence intensity (a.u.)
CTTACTCCTAATTACTAAAGTGGTAGTGCCCGCAATTAGTCGGAGTCACCTAGTGCAG	4100 fluorescence intensity (a.u.)
TGTTAAATTATAAATGTGGTTTTACAGTTTAATGTTTCTCCGGAGTCACCTAGTGCAG	15600 fluorescence intensity (a.u.)
CCAAACAGTCCAGATTGCCACTCAAATTTTGAGAGTCCAACGGAGTCACCTAGTGCAG	10100 fluorescence intensity (a.u.)
GCACATAATTGGACGAAAACCAAAGTTGTTCGACTGGGTACGGAGTCACCTAGTGCAG	30500 fluorescence intensity (a.u.)
CAGATTGACCAAGTGGCGCCGCAGTAGCCGCGTCGGCCTCCGGAGTCACCTAGTGCAG	6790 fluorescence intensity (a.u.)
CCAAAATTGAAAGTTTGGTTGAAATTGGAACAATGTGACGCGGAGTCACCTAGTGCAG	26200 fluorescence intensity (a.u.)
ATAAATTGGCGCGATTGGTGGGAATGGGAGGGCGTACCGCCGGAGTCACCTAGTGCAG	31800 fluorescence intensity (a.u.)
TTCGTGTAATTGAAGAACTTAATATTTTAAGATAAGAAAACGGAGTCACCTAGTGCAG	16000 fluorescence intensity (a.u.)
ATCTGAACAGCCCCTAAGTCTAGCAATAGCATTGAACCAACGGAGTCACCTAGTGCAG	4070 fluorescence intensity (a.u.)
TGGAGTGGTGATTTGCTCTCTCTTGAGTGTTGATTAGTGGCGGAGTCACCTAGTGCAG	9250 fluorescence intensity (a.u.)
TATATATATATATATATATATACACGATAACTATTTTAGTCGGAGTCACCTAGTGCAG	5720 fluorescence intensity (a.u.)
TTTTGATGTGATCTAAACACACCCTAAACAACACCAGGATCGGAGTCACCTAGTGCAG	5880 fluorescence intensity (a.u.)
CCCCAATCAAATTCTTGAAGAAATCAACAAAATTTCCTGACGGAGTCACCTAGTGCAG	7860 fluorescence intensity (a.u.)
TTGATTTTAAATTTGATTTTAAGATATTTTCAATGTATTTCGGAGTCACCTAGTGCAG	16800 fluorescence intensity (a.u.)
TTTGGAAGTAATGAAGATTGACAATACTAATGGAAGAATACGGAGTCACCTAGTGCAG	4160 fluorescence intensity (a.u.)
TGTAATTTATTTTATTATTAAACTATTAAATGTGTATCCGCGGAGTCACCTAGTGCAG	21900 fluorescence intensity (a.u.)
AGGCTAATTGGCATCCGCATCACGGCAATACACATAGCGTCGGAGTCACCTAGTGCAG	24000 fluorescence intensity (a.u.)

Sequence	binding signal
AAAGACAATCATCTCGAACTCACCCTCCCACGCGTCCACCCGGAGTCACCTAGTGCAG	3300 fluorescence intensity (a.u.)
AATATTTTATAATTATTTAGATGACATGTAGGAACGAGGACGGAGTCACCTAGTGCAG	9730 fluorescence intensity (a.u.)
TTAGCCGACTAATTACGAAATGACACGTGTCAAGTTACAACGGAGTCACCTAGTGCAG	6110 fluorescence intensity (a.u.)
AAATAAAATAAATTGGACACAGAAACTCACGACTGTATTTCGGAGTCACCTAGTGCAG	23600 fluorescence intensity (a.u.)
TTGAATCAAATTTGAAATTTGTTTTGGTGGAGTGTTGCATCGGAGTCACCTAGTGCAG	10900 fluorescence intensity (a.u.)
AGCAATAGTGGGACGGTAGATTGGCTGTCATCGTCACTACCGGAGTCACCTAGTGCAG	3400 fluorescence intensity (a.u.)
ATTACTTTTGAAATTAAGTAAATTACTTTAAATGTTTGAACGGAGTCACCTAGTGCAG	5190 fluorescence intensity (a.u.)
AGAAATTTCATTATTTTAAGAAAGTTTGATTATAGAGTTGCGGAGTCACCTAGTGCAG	3150 fluorescence intensity (a.u.)
ATGAATTGACTATAGATAAATTGGAGCCAATAGTGGGCTACGGAGTCACCTAGTGCAG	32500 fluorescence intensity (a.u.)
TTTCTCATGATAATCATTTGCAATCACCAAGGAGTGAAATCGGAGTCACCTAGTGCAG	14900 fluorescence intensity (a.u.)
AAGGTTGTTAATTACAAACCATGTTTCGTACTACAACTCTCGGAGTCACCTAGTGCAG	4580 fluorescence intensity (a.u.)
ATTATATACATGTTAATTGTGTATTTATAGCATTTAACCTCGGAGTCACCTAGTGCAG	5130 fluorescence intensity (a.u.)
AGTAAATTGGAGGTCGACATCCGCTTCTTCGTATGTGCCTCGGAGTCACCTAGTGCAG	29800 fluorescence intensity (a.u.)
TTCAAATCTATCTCGCTGACAGGTGGGCCCAGTCCAATGTCGGAGTCACCTAGTGCAG	5340 fluorescence intensity (a.u.)
GTTGACGGTCTCCCAATCATATCACGTATAAGCATTGGGGCGGAGTCACCTAGTGCAG	8830 fluorescence intensity (a.u.)
TGAAATTTACTCAATTTTGTGTGGTGAAGTTGTCGACGTGCGGAGTCACCTAGTGCAG	13400 fluorescence intensity (a.u.)
CAAGTGAAGAAAGACTGTTAATTGCAAATTGCCGTGCGGACGGAGTCACCTAGTGCAG	5450 fluorescence intensity (a.u.)
AGGAGATATTGATTTGTATAAATTACCACAAAATTGTGTGCGGAGTCACCTAGTGCAG	34600 fluorescence intensity (a.u.)
AGTATCCAATTACACGGTGTAAAGCTCGCTACAGTTCGATCGGAGTCACCTAGTGCAG	3590 fluorescence intensity (a.u.)
GGTTAATTGCATTGCGTCCGCGTTGGGTTTGCGTTGCATGCGGAGTCACCTAGTGCAG	32500 fluorescence intensity (a.u.)
AAGACTAATTGGCATTGCCTCTTGTCACAGCGTAATTTAACGGAGTCACCTAGTGCAG	17800 fluorescence intensity (a.u.)

Sequence	binding signal
TATTCATCAGAGTGATTTGTTCTGGCGTTTGGGCAAAATCCGGAGTCACCTAGTGCAG	4050 fluorescence intensity (a.u.)
ATCCAATCTACCATATAGTTCATATTCATTATGTGACACACGGAGTCACCTAGTGCAG	3180 fluorescence intensity (a.u.)
TGTGCAGATTGAATAATAGTTTGAATTTTCGATCTTCACACGGAGTCACCTAGTGCAG	10700 fluorescence intensity (a.u.)
CTAATTAATCCGTCATTAGAAAATGTTTACTGCATCATACCGGAGTCACCTAGTGCAG	9970 fluorescence intensity (a.u.)
TTCGTCTGATTTAATCTTATGACAAGAAAGGTAAATACATCGGAGTCACCTAGTGCAG	8330 fluorescence intensity (a.u.)
GTCCAACGAGTCAATCACACCCTGAGAGCGAATTCTGGCCCGGAGTCACCTAGTGCAG	19000 fluorescence intensity (a.u.)
TCAACTAATCGTACGCTAATGACTTACCAAATTTTACGTACGGAGTCACCTAGTGCAG	3460 fluorescence intensity (a.u.)
TTGGCAAATTGACCGTGATGGGTTCTTTGTTTCCGTTTGCCGGAGTCACCTAGTGCAG	39500 fluorescence intensity (a.u.)
AACTCATCCCCAATTATATATAACTGTATACGGAAATGCCCGGAGTCACCTAGTGCAG	4680 fluorescence intensity (a.u.)
TGTTTAATTACAAGGAATTTCATTGATGACAGTTCAATATCGGAGTCACCTAGTGCAG	10900 fluorescence intensity (a.u.)
TCAATGATTGCTGTATAAATGTTGTGTTGTGCAAATTATGCGGAGTCACCTAGTGCAG	29700 fluorescence intensity (a.u.)
AATTGGAGACTGATTAGAGAGCTAGGCGAGCGAGGAGGAACGGAGTCACCTAGTGCAG	4920 fluorescence intensity (a.u.)
CCTGCTTAATTAATCCATTATTACCTCCATGCCACATCTCCGGAGTCACCTAGTGCAG	18500 fluorescence intensity (a.u.)
AAAACGGCACTGATGACAATAATTGCTGGCCATGGTTTCACGGAGTCACCTAGTGCAG	5900 fluorescence intensity (a.u.)
ACTACTAAGTTAATTGCATTTTACTTCTCTCTCAATCTCGCGGAGTCACCTAGTGCAG	10000 fluorescence intensity (a.u.)
ATGTGCTAATTACTAACTAACAACCACTAGGTTTGACTATCGGAGTCACCTAGTGCAG	20600 fluorescence intensity (a.u.)
ACTCTCTCCCGGCAATAATTGGTGACTGCTTCCACTTTTACGGAGTCACCTAGTGCAG	5520 ± 996 fluorescence intensity (a.u.)
ATGATATAATTAATTAATTAGCGCGCGGTTCCACCTCCCGCGGAGTCACCTAGTGCAG	60200 fluorescence intensity (a.u.)
TTGATGATGACAGATCGAATGGTCAGGATTAGTTGGTACCCGGAGTCACCTAGTGCAG	25500 fluorescence intensity (a.u.)
AGGGGATTAATTCCACTCATTAATAGATGTGAAATTATTCCGGAGTCACCTAGTGCAG	12300 fluorescence intensity (a.u.)
AATTAATAGTTTTAATTTAAAAGACACCTGATGAATAGAACGGAGTCACCTAGTGCAG	9880 fluorescence intensity (a.u.)

Sequence	binding signal
GTAAATTGTTTACTATCGAATGTACATGCTATATATATTGCGGAGTCACCTAGTGCAG	20400 fluorescence intensity (a.u.)
GTATAATGGATAACATAGCAGCTATATGTAAAACTCCATTCGGAGTCACCTAGTGCAG	3430 fluorescence intensity (a.u.)
ATGGTGATGATGTGGCATATTGACATGTGGGACCCACGTGCGGAGTCACCTAGTGCAG	6120 fluorescence intensity (a.u.)
CATTAACTGAAAAGAGAGAGTTGATATATGATAGTACCTCCGGAGTCACCTAGTGCAG	8460 fluorescence intensity (a.u.)
TAATAATTTGAGGGTGAATAGCCAATCTAGTCCCTCAAGTCGGAGTCACCTAGTGCAG	12300 fluorescence intensity (a.u.)
TTTTATTTGACTGGTGGATGAAATACCAATCTTGTTTGGCCGGAGTCACCTAGTGCAG	16000 fluorescence intensity (a.u.)
TACTACTGACATAACTAAATTAAGTACACATATCCCAAGGCGGAGTCACCTAGTGCAG	13500 fluorescence intensity (a.u.)
GGTGGTGGTGGTGGTGGTGGTGGCGTCGAGATAGTGAGCGCGGAGTCACCTAGTGCAG	8140 fluorescence intensity (a.u.)
CACGTGGTGATTAGATAGTACTGTAGATTAGCATTAGGTTCGGAGTCACCTAGTGCAG	23900 fluorescence intensity (a.u.)
AGCTTGGAATTGATTGTTCATCTTCTGTATTCAGTCAAGTCGGAGTCACCTAGTGCAG	28000 fluorescence intensity (a.u.)
TGCATCCTGATATGATTGCCGTCCAATCGGGAACGCGCCTCGGAGTCACCTAGTGCAG	18400 fluorescence intensity (a.u.)
TCAAATTTAAATAAATGGATGTAACATTTATTATATCGCACGGAGTCACCTAGTGCAG	22400 fluorescence intensity (a.u.)
TTTCGTTAATGGAGACTGACATCATGGATTTTAGTTTCCTCGGAGTCACCTAGTGCAG	16500 fluorescence intensity (a.u.)
TTTCTAATCTTCTAGATTGAGTTATTTTGGGACGGATAGACGGAGTCACCTAGTGCAG	6810 fluorescence intensity (a.u.)
AAGATTATTAATTAGAGATATTTCATCTGGCATTTATAAACGGAGTCACCTAGTGCAG	11400 fluorescence intensity (a.u.)
CCTACCTCCATTATTCATCCAATCACAACCCTCCACCAATCGGAGTCACCTAGTGCAG	7860 fluorescence intensity (a.u.)
CTGACGAGTTATTATTAACCCACCCACCCGGAAGCCACTGCGGAGTCACCTAGTGCAG	3300 fluorescence intensity (a.u.)
AAAACACTAGGATAATTAGCTTGAGCCATATGCTTATCTCCGGAGTCACCTAGTGCAG	5750 fluorescence intensity (a.u.)
CTGATAGATAGATATGAATGAATATGGTGCATGGGCGTTGCGGAGTCACCTAGTGCAG	27500 fluorescence intensity (a.u.)
CTACCAACTGCAATGATTACTTGATTAGTGAAAGGAGCATCGGAGTCACCTAGTGCAG	9830 fluorescence intensity (a.u.)
ATGTTTGATTAGCCAGCACGCGATTCTTGTGTTAATAGTTCGGAGTCACCTAGTGCAG	29000 fluorescence intensity (a.u.)
